Consider 91 compounds from PubChem BioAssay AID360 (National Center for Advancing Translational Sciences (NCATS), 2006).

Among all 48,000 compounds or so, about 550 (1.1%) were called active. Another 4% or so got no clear call; they are omitted. Cut-off read from the data, not from the text of the source: active = potency below about 15 µM; inconclusive = mostly about 16 µM to 33 µM; inactive = weaker than that. The list shows a part of the results.
Potency is the fitted concentration of half-maximal effect.

In this assay the target is Lysosomal acid glucosylceramidase (Homo sapiens) (UniProt P04062). The assay can be described thus: Glucocerebrosidase.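 Note: the screen sought inhibitors.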 Conditions: purified enzyme, resorufin glucoside fluorescence (screen aimed at inhibitors), 20 min. An outline of the steps: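 Wild-type enzyme at 0.2 nM final in 50mM citric acid/KH2PO4, 10mM sodium taurocholate, 0.01% tween-20, pH 5.9, with resorufin beta-D-glucopyranoside at 30 uM final. Compounds titrated, 20 min at RT, red fluorescence read; AC50 from titration.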
Chain of UniProt P04062 (P04062 whole entry, looked up): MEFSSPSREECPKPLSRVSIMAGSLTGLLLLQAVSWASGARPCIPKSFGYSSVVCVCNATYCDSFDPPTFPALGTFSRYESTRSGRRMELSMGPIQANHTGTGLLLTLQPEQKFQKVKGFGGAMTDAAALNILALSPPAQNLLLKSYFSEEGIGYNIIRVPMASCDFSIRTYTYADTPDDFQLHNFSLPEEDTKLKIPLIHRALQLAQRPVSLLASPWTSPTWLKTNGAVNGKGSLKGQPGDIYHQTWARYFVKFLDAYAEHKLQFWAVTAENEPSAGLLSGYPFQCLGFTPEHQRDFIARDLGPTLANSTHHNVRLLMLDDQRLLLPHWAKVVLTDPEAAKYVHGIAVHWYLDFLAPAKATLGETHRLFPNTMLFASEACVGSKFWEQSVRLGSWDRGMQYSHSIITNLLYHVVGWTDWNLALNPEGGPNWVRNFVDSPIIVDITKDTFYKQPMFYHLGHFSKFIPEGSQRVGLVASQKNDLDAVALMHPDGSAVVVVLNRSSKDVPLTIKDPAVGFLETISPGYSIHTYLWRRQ
As to `Cc1cc2nc(SCC(=O)O)nc(C)c2cc1C`, the Potency is inactive: > 76.9 µM.

Consider `CC(C)CCNC(=O)CN(Cc1ccc2c(c1)OCO2)C(=O)CCC(=O)Nc1ccccn1`, for which the Potency was inactive: > 76.9 µM.

For `Cc1ccc(Cn2nnc3c(=O)n(CC(=O)NCc4ccco4)cnc32)cc1`, the Potency was inactive: > 76.9 µM.

As for `CCOC(=O)CS(=O)(=O)c1ccc2ccccc2c1`, the Potency was inactive: > 76.9 µM.

As to `O=C1CC(N2CCOCC2)C(=O)N1Cc1ccc(N2CCCC2=O)cc1` (stereo unspecified), the Potency was inactive: > 76.9 µM.

For the compound `COc1cc(C)c(S(=O)(=O)NCc2cccs2)cc1C`, the Potency was inactive: > 76.9 µM.

With `O=C(Nc1nc2ccccc2s1)C1CCCN1S(=O)(=O)c1ccc(Cl)cc1` (stereo unspecified), the Potency was inactive: > 76.9 µM.

Consider `CCC(C)(C(=O)NC1CCCC1)N(CC1CCCO1)C(=O)CNC(=O)c1ccccc1` (stereo unspecified), for which the Potency was inactive: > 76.9 µM.

In the case of `CCCc1[nH]nc2c1C(CCc1ccccc1)C(C#N)=C(N)O2` (stereo unspecified), the Potency was inactive: > 76.9 µM.

Take `O=C(COC(=O)CSc1nnc(-c2ccc(Cl)cc2)o1)NCc1ccc2c(c1)OCO2`: the Potency was active: 11 µM.

Consider `COc1ccc(C(=O)c2ccccc2)c(O)c1`, for which the Potency is inactive: > 76.9 µM.

With `O=C(CCc1ccc(CCC(=O)c2cccs2)s1)c1cccs1`, the Potency is inactive: > 76.9 µM.

As to `CCn1c(SCC(=O)Nc2ccccc2C)nnc1-c1ccccc1O`, the Potency was inactive: > 76.9 µM.

For `CCn1c(Cc2ccc(OC)cc2)nnc1SCC(=O)NC1CCCCC1`, the Potency is inactive: > 76.9 µM.

Turning to `COc1cc(C(N)=O)cc(Br)c1OC`, the Potency is inactive: > 76.9 µM.

As for `COc1ccccc1N1CCN(C(=O)c2cnn3cccnc23)CC1`, the Potency is inactive: > 76.9 µM.

On to `CCCCC(=O)Nc1ccccc1C#N`, for which the Potency is inactive: > 76.9 µM.

Turning to `CCC(C)C(=O)Nc1nnc(-c2cccs2)s1` (stereo unspecified), the Potency was inactive: > 76.9 µM.

As to `Nc1cc(Cl)ccc1N1CCOCC1`, the Potency was inactive: > 76.9 µM.

Consider `CC(C)OC(=O)CN1CCN(C2c3ccccc3-c3ccccc32)CC1`, for which the Potency was inactive: > 76.9 µM.

Regarding `Cc1ccc(-c2ccc(=O)n(CC(=O)NCCCN3CCCCC3C)n2)cc1` (stereo unspecified), the Potency is inactive: > 76.9 µM.

Take `O=C(CN1C(=O)NC2(CCCC2)C1=O)Nc1cccc(-c2nnc3n2CCCCC3)c1`: the Potency is inactive: > 76.9 µM.

As to `Cn1c(=S)[nH]c2cccnc21`, the Potency was inactive: > 76.9 µM.

Turning to `C[n+]1cnn2c1SCC1(COC1)C2`, the Potency is inactive: > 76.9 µM.

Consider `CN1C(C)(C)CC(NC(=O)CCC(=O)NC2CC(C)(C)N(C)C(C)(C)C2)CC1(C)C`, for which the Potency is inactive: > 76.9 µM.

Turning to `COc1ccc(C(=O)Nn2c(SCC(=O)NCC3CCCO3)nc3ccccc3c2=O)cc1` (stereo unspecified), the Potency was inactive: > 76.9 µM.

For the compound `Cc1ccc(C(=O)CNc2nc3c(c(=O)[nH]c(=O)n3C)n2Cc2ccccc2)cc1`, the Potency was inactive: > 76.9 µM.

Regarding `COc1ccc(-n2ncc3c(NCCCN4CCOCC4)ncnc32)cc1`, the Potency entry is “inactive”.

`Cc1ccc(-c2nnn(CC(=O)Nc3ccc(S(=O)(=O)N4CCC(C)CC4)cc3)n2)cc1`: the Potency was inactive: > 76.9 µM.

Turning to `CCOC(=O)C1CCN(S(=O)(=O)c2ccc(OCC)cc2)CC1`, the Potency is inactive: > 76.9 µM.

Regarding `Cc1ccc(OCCCC(=O)Nc2ccc(S(=O)(=O)Nc3cc(C)on3)cc2)cc1`, the Potency is inactive: > 76.9 µM.

Regarding `Cc1ccc2c(C(=O)CN3CCN(c4ccccc4)CC3)c(C)[nH]c2c1`, the Potency was inactive: > 76.9 µM.

As to `C/C(Nc1ccc(F)cc1)=C(/C#N)C(N)=O`, the Potency was inactive: > 76.9 µM.

Regarding `Cn1cc(CNC(=O)Nc2ccc3c(c2)OCO3)cn1`, the Potency is inactive: > 76.9 µM.

With `CC(C)(C)SCCNC(=O)c1ccc(NS(C)(=O)=O)cc1`, the Potency is inactive: > 76.9 µM.

`O=C(CN1C(=O)c2ccccc2C1=O)Nc1nnc(C2CCCO2)s1` (stereo unspecified): the Potency is inactive: > 76.9 µM.

Take `CC(C)=C(C#N)c1nc2ccccc2s1`: the Potency is inactive: > 76.9 µM.

`CCOC(=O)c1cnc(SCC(=O)N2CCc3ccccc32)nc1N`: the Potency is inactive: > 76.9 µM.

Turning to `CCN(CC)S(=O)(=O)c1ccc(Nc2cc(C)nc3ncnn23)cc1`, the Potency was inactive: > 76.9 µM.

As to `COc1ccc(N2CCC(CNS(=O)(=O)c3cccc(C(F)(F)F)c3)C2)cc1` (stereo unspecified), the Potency entry was “inactive”.

Regarding `COc1ccc(-c2nnc(SCC(N)=O)n2N)cc1`, the Potency was inactive: > 76.9 µM.

Turning to `COc1ccc(-c2nnc(CSc3nc4ccccc4c(=O)n3CC3CCCO3)o2)cc1OC` (stereo unspecified), the Potency was inactive: > 76.9 µM.

For the compound `OCC#CCSc1nnc(-c2ccccc2Br)o1`, the Potency was inactive: > 76.9 µM.

As to `CCOC(=O)CC(=O)CSc1ncc(C(=O)OCC)c(N)n1`, the Potency was inactive: > 76.9 µM.

As to `Cc1nc(C)n(C(C)CC(=O)O)n1` (stereo unspecified), the Potency was inactive: > 76.9 µM.

Consider `COc1ccc(-c2cc(C(=O)N3CCN(C(c4ccccc4)c4ccccc4)CC3)no2)cc1OC`, for which the Potency was inactive: > 76.9 µM.

On to `COc1ccccc1CN(Cc1ccco1)S(=O)(=O)c1ccc(-n2cnnn2)c(OC)c1`, for which the Potency was inactive: > 76.9 µM.

Take `Cc1ccc(NC(=O)c2ccco2)c(NC(=O)CN2C(=O)c3ccccc3C2=O)c1`: the Potency is inactive: > 76.9 µM.

In the case of `Cc1ccc(-n2nc3c(c2NC(=O)c2ccc(OC(C)C)cc2)CS(=O)C3)cc1` (stereo unspecified), the Potency is inactive: > 76.9 µM.

`O=C(NCc1cccs1)c1cc(-c2cccc(Cl)c2)on1`: the Potency was inactive: > 76.9 µM.

As to `COc1ccc(OC)c(C(c2nnnn2CC2CCCO2)N2CCN(C)CC2)c1` (stereo unspecified), the Potency was inactive: > 76.9 µM.

As to `OC(CN1C2=NCCN2c2ccccc21)c1ccc2c(c1)OCO2` (stereo unspecified), the Potency is inactive: > 76.9 µM.

As for `c1ccc(CCc2ccccc2-c2nc(-c3ccccn3)no2)cc1`, the Potency is inactive: > 76.9 µM.

Turning to `Brc1ccc(NCc2nnc3n2CCCCC3)cc1`, the Potency is inactive: > 76.9 µM.

As for `CCOc1cc(N2CCOCC2)c(OCC)cc1NC(=O)c1nc2nc(C)cc(C)n2n1`, the Potency is inactive: > 76.9 µM.

Turning to `O=C(OCC(=O)N1CCCCC1)c1c[nH]c(=O)[nH]c1=O`, the Potency was inactive: > 76.9 µM.

With `Cc1ccc(N(C(=O)c2ccc3c(c2)OCO3)C2C=CS(=O)(=O)C2)cc1` (stereo unspecified), the Potency was inactive: > 76.9 µM.

Turning to `N#CCCCn1c(-c2ccccc2)noc1=O`, the Potency is inactive: > 76.9 µM.

Regarding `Cc1[nH]c2ccccc2c1C1(O)C(=O)N(Cc2ccc3c(c2)OCO3)c2ccccc21` (stereo unspecified), the Potency was inactive: > 76.9 µM.

`Cc1cccc(-c2c3c(=O)n(C)c(=O)n(C)c3cn2C(C)(C)C)c1`: the Potency is inactive: > 76.9 µM.

With `Cn1c(SCC(=O)N2CCCCC2)nc2cccnc21`, the Potency is inactive: > 76.9 µM.

With `CC(C)CNS(=O)(=O)c1ccc(CCC(=O)N2CCOCC2)cc1`, the Potency was inactive: > 76.9 µM.

On to `CN(C(=O)COc1cccc(Br)c1)C1CCS(=O)(=O)C1` (stereo unspecified), for which the Potency was inactive: > 76.9 µM.

Take `C=CCNc1nc(NCCO)nc(N2CCCC2)n1`: the Potency result is “inactive”.

For the compound `CCOc1ccccc1N1CCN(C(=O)Nc2ccc(F)c(Cl)c2)CC1`, the Potency is inactive: > 76.9 µM.

In the case of `COc1ccc(-c2cc(CCCC(=O)NCCc3cc(OC)ccc3OC)no2)cc1`, the Potency is inactive: > 76.9 µM.

Regarding `Cc1ccc(-c2cc(C(=O)NCc3ccccn3)no2)cc1`, the Potency was inactive: > 76.9 µM.

`CC(C)(C)C(=O)[C@@H]1[C@@H]2C(=O)N(c3ccc4c(c3)OCCO4)C(=O)[C@@H]2C2c3ccccc3C=CN21` (stereo partly specified): the Potency is inactive: > 76.9 µM.

Take `Cn1c(SCc2nc3ccccc3n2CCO)nc2ccccc21`: the Potency was inactive: > 76.9 µM.

Regarding `O=c1c2[nH]c3ccccc3c2ncn1CCC1=CCCCC1`, the Potency is inactive: > 76.9 µM.

For the compound `COc1cc(NC(=O)Cn2nnc(-c3ccccc3N)n2)cc(OC)c1`, the Potency was inactive: > 76.9 µM.

`COc1ccc2[nH]c(=O)c(CN(C(=O)C3CCCO3)c3ccc(C)cc3)cc2c1` (stereo unspecified): the Potency was inactive: > 76.9 µM.

As to `COc1ccc(-n2c(COc3ccccc3)nnc2SCC(N)=O)cc1`, the Potency is inactive: > 76.9 µM.

As for `COC(=O)c1cc(NC(=O)CSc2nnc(CN3CCOCC3)n2C)ccc1Cl`, the Potency was inactive: > 76.9 µM.

Consider `COC(=O)C1=C(N)OC2=C(C(=O)CC(C)(C)C2)C1c1cccnc1` (stereo unspecified), for which the Potency was inactive: > 76.9 µM.

On to `CC(C(=O)OCC(=O)Nc1ccc2c(c1)OCO2)N1C(=O)c2ccccc2C1=O` (stereo unspecified), for which the Potency was inactive: > 76.9 µM.

Take `COCCn1nnnc1C(c1ccccn1)N1CCN(c2cc(C)ccc2C)CC1` (stereo unspecified): the Potency is inactive: > 76.9 µM.

For `O=C(NCc1ccccn1)c1c(Cl)cccc1Cl`, the Potency was inactive: > 76.9 µM.

As for `O=C(Nc1nccs1)c1c(O)c2cccc3c2n(c1=O)CCC3`, the Potency is inactive: > 76.9 µM.

On to `Cc1cc(=O)[nH]c(S/C=C/c2ccccc2)n1`, for which the Potency is inactive: > 76.9 µM.

As for `COC(=O)CSC1=C(C#N)C(c2sccc2C)CC(=O)N1` (stereo unspecified), the Potency was inactive: > 76.9 µM.

With `Cc1ccc(S(=O)(=O)N2CCC(C(=O)OCC(=O)N3CCc4ccccc43)CC2)cc1`, the Potency is inactive: > 76.9 µM.

For `CSCCC1NC(=O)N(CC(=O)Nc2ccc(N3CCCCC3)cc2)C1=O` (stereo unspecified), the Potency was inactive: > 76.9 µM.

For `CCCCCc1c(C)nc(SCC(=O)O)[nH]c1=O`, the Potency is inactive: > 76.9 µM.

Turning to `Cn1c(SCC(=O)NCC2CCCO2)nnc1-c1ccc(S(=O)(=O)N2CCCC2)cc1` (stereo unspecified), the Potency is inactive: > 76.9 µM.

Turning to `CCn1c(Sc2nc(C)nc3scc(-c4cccs4)c23)n[nH]c1=O`, the Potency was inactive: > 76.9 µM.

As to `CCCCCn1c(SCC(=O)OCC)nc2cc(C(=O)NCc3ccco3)ccc2c1=O`, the Potency was inactive: > 76.9 µM.

Take `c1ccc(Cc2nn3c(COc4ccccc4)nnc3s2)cc1`: the Potency is inactive: > 76.9 µM.

As for `O=C(c1ccc(-c2nnc(-c3ccccc3)o2)cc1)N1CCCCCC1`, the Potency was inactive: > 76.9 µM.

In the case of `CCc1nnc(NC(=O)CCC(=O)N2CCN(C3CCCCC3)CC2)s1`, the Potency was inactive: > 76.9 µM.

For `O=c1c(Cl)c(NCCO)ncn1-c1ccccc1`, the Potency was inactive: > 76.9 µM.
